Assay results taken from PMC9877181 (Current biology : CB, 2022).

Key:
BglX = biological target: T1, BglX (Caulobacter vibrioides, UniProt A0A0H3C5R6); experiment: pNPG hydrolysis, absorbance […] nm; format: biochemical; details: 50 mM Tris-HCl pH 8; 4 μM pNPG
T1 sequence (A0A0H3C5R6 38-767): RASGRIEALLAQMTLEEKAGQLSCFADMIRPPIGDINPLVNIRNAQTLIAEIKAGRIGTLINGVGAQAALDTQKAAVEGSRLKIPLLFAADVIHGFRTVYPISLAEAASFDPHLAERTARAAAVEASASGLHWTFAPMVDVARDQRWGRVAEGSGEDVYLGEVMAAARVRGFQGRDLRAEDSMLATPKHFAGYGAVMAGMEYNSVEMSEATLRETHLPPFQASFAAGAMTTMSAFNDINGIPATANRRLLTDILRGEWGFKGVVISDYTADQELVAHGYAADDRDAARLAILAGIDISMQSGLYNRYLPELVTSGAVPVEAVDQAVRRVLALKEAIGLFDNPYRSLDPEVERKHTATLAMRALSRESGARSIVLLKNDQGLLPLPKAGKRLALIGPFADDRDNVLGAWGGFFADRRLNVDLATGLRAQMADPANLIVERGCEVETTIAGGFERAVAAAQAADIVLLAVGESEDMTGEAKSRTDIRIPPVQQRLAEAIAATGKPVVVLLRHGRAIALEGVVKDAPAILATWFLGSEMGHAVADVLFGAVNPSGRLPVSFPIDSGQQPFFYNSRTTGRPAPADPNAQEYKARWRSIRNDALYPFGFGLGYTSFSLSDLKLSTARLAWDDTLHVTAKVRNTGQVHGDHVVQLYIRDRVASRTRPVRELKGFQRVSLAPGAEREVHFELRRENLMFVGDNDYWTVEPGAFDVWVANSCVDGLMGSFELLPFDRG

EstG = EstG (Caulobacter vibrioides, UniProt A0A0H3C8K6); format: biochemical; details: 50 mM Tris-HCl pH 8; pNB substrate; competitive, active site

O=[N+]([O-])c1ccc(O[C@@H]2O[C@H](CO)[C@@H](O)[C@H](O)[C@H]2O)cc1 [pNPG, 4-nitrophenyl-β-D-glucopyranoside]
pNPG hydrolysis, absorbance 405 nm (BglX): BglX hydrolyzed pNPG in a concentration-dependent manner, confirming its activity as a glucohydrolase

OC[C@H]1O[C@@H]2O[C@H]3[C@H](O)[C@@H](O)[C@@H](O[C@H]4[C@H](O)[C@@H](O)[C@@H](O[C@H]5[C@H](O)[C@@H](O)[C@@H](O[C@H]6[C@H](O)[C@@H](O)[C@@H](O[C@H]7[C@H](O)[C@@H](O)[C@@H](O[C@H]1[C@H](O)[C@H]2O)O[C@@H]7CO)O[C@@H]6CO)O[C@@H]5CO)O[C@@H]4CO)O[C@@H]3CO [α-CD, α-cyclodextrin]
inhibition of pNB hydrolysis, absorbance 405 nm (EstG): increasing amounts of α-CD reduced EstG’s hydrolysis of pNB in a concentration-dependent manner
